Assay results from EP2161029A1, “Composition comprising peptides” (Unilever N.V., priority 2008, dated 2010).
Not every detail of the peptide structures is certain; ends, links or a residue may be inferred. Peptide text beside a SMILES is read from it.

Tested on: ACE
Experiment: ACE inhibition, HPLC-UV at-line assay with substrate HHL
Type: biochemical
Details: for residual ACE activity (in % of control): substrate Hippuryl-His-Leu, at-line HPLC-UV assay, mean; for IC50: dipeptide 2.5 - 500 µM, substrate Hip-His-Leu (1 mM), n=2, read-out: IC50 means ± SE

Compound	residual ACE activity (in % of control) (20 µM dipeptide)	residual ACE activity (in % of control) (200 µM dipeptide)	IC50 [µM]
CC[C@H](C)[C@H](N)C(=O)N[C@@H](Cc1c[nH]cn1)C(=O)O [IH] (H-Ile-His-OH)	93.5 % of control	69.85 % of control	–
CC[C@H](C)[C@H](N)C(=O)N[C@H](C(=O)O)[C@@H](C)CC [II] (H-Ile-Ile-OH)	99.2 % of control	99.60 % of control	–
CC[C@H](C)[C@H](N)C(=O)N[C@@H](CCCCN)C(=O)O [IK] (H-Ile-Lys-OH)	99.4 % of control	95.50 % of control	–
CC[C@H](C)[C@H](N)C(=O)N[C@@H](CC(C)C)C(=O)O [IL] (H-Ile-Leu-OH)	100.0 % of control	99.05 % of control	–
CC[C@H](C)[C@H](N)C(=O)N[C@@H](CCSC)C(=O)O [IM] (H-Ile-Met-OH)	90.8 % of control	59.95 % of control	–
CC[C@H](C)[C@H](N)C(=O)N[C@@H](CCC(N)=O)C(=O)O [IQ] (H-Ile-Gln-OH)	98.0 % of control	84.10 % of control	–
CC[C@H](C)[C@H](N)C(=O)N[C@@H](CCCNC(=N)N)C(=O)O [IR]	91.8 % of control	67.00 % of control	–
CC[C@H](C)[C@H](N)C(=O)N[C@@H](CO)C(=O)O [IS] (H-Ile-Ser-OH)	98.9 % of control	86.10 % of control	–
CC[C@H](C)[C@H](N)C(=O)N[C@H](C(=O)O)[C@@H](C)O [IT] (H-Ile-Thr-OH)	98.2 % of control	98.35 % of control	–
CC[C@H](C)[C@H](N)C(=O)N[C@H](C(=O)O)C(C)C [IV] (H-Ile-Val-OH)	99.8 % of control	96.75 % of control	–
CC[C@H](C)[C@H](N)C(=O)N[C@@H](Cc1c[nH]c2ccccc12)C(=O)O [IW, Ile-Trp]	33.2 % of control	20.25 % of control	19
NCCCC[C@H](N)C(=O)N[C@@H](CCC(=O)O)C(=O)O [KE] (H-Lys-Glu-OH)	88.4 % of control	88.95 % of control	–
NCCCC[C@H](N)C(=O)N[C@@H](Cc1c[nH]cn1)C(=O)O [KH]	90.5 % of control	77.50 % of control	–
CC[C@H](C)[C@H](NC(=O)[C@@H](N)CCCCN)C(=O)O [KI]	87.4 % of control	78.60 % of control	–
CSCC[C@H](NC(=O)[C@@H](N)CCCCN)C(=O)O [KM]	83.9 % of control	71.20 % of control	–
NCCCC[C@H](N)C(=O)N1CCC[C@H]1C(=O)O [KP, Lys-Pro] (H-Lys-Pro-OH)	64.3 % of control	28.20 % of control	40
N=C(N)NCCC[C@H](NC(=O)[C@@H](N)CCCCN)C(=O)O [KR] (H-Lys-Arg-OH)	87.2 % of control	75.55 % of control	–
NCCCC[C@H](N)C(=O)N[C@@H](CO)C(=O)O [KS]	84.6 % of control	70.40 % of control	–
CC(C)C[C@H](N)C(=O)N[C@@H](C)C(=O)O [LA] (H-Leu-Ala-OH)	86.0 % of control	83.50 % of control	–
CC(C)C[C@H](N)C(=O)N[C@@H](CC(=O)O)C(=O)O [LD] (H-Leu-Asp-OH)	87.9 % of control	87.80 % of control	–
CC(C)C[C@H](N)C(=O)N[C@@H](CCC(=O)O)C(=O)O [LE] (H-Leu-Glu-OH)	88.1 % of control	85.90 % of control	–
CC(C)C[C@H](N)C(=O)N[C@@H](Cc1ccccc1)C(=O)O [LF] (H-Leu-Phe-OH)	100.0 % of control	79.60 % of control	–
CC(C)C[C@H](N)C(=O)NCC(=O)O [LG] (H-Leu-Gly-OH)	88.4 % of control	87.30 % of control	–
CC(C)C[C@H](N)C(=O)N[C@@H](Cc1c[nH]cn1)C(=O)O [LH] (H-Leu-His-OH)	100.0 % of control	83.80 % of control	–
CC(C)C[C@H](N)C(=O)N[C@@H](CCCCN)C(=O)O [LK] (H-Leu-Lys-OH)	86.8 % of control	84.60 % of control	–
CC(C)C[C@H](NC(=O)[C@@H](N)CC(C)C)C(=O)O [LL]	81.9 % of control	85.70 % of control	–

Compound	residual ACE activity (in % of control) (20 µM dipeptide)	residual ACE activity (in % of control) (200 µM dipeptide)	IC50 [µM]
CSCC[C@H](NC(=O)[C@@H](N)CC(C)C)C(=O)O [LM] (H-Leu-Met-OH)	84.4 % of control	84.00 % of control	–
CC(C)C[C@H](N)C(=O)N[C@@H](CC(N)=O)C(=O)O [LN] (H-Leu-Asn-OH)	85.3 % of control	86.90 % of control	–
CC(C)C[C@H](N)C(=O)N1CCC[C@H]1C(=O)O [LP] (H-Leu-Pro-OH)	80.3 % of control	65.50 % of control	–
CC(C)C[C@H](N)C(=O)N[C@@H](CCC(N)=O)C(=O)O [LQ] (H-Leu-Gln-OH)	88.8 % of control	87.30 % of control	–
CC(C)C[C@H](N)C(=O)N[C@H](C(=O)O)[C@@H](C)O [LT] (H-Leu-Thr-OH)	100.0 % of control	88.30 % of control	–
CC(C)C[C@H](N)C(=O)N[C@H](C(=O)O)C(C)C [LV] (H-Leu-Val-OH)	84.5 % of control	87.40 % of control	–
CC(C)C[C@H](N)C(=O)N[C@@H](Cc1c[nH]c2ccccc12)C(=O)O [LW, Leu-Trp]	50.5 % of control	23.00 % of control	144
CC(C)C[C@H](N)C(=O)N[C@@H](Cc1ccc(O)cc1)C(=O)O [LY]	68.4 % of control	44.70 % of control	–
CSCC[C@H](N)C(=O)N[C@@H](CS)C(=O)O [MC]	79.6 % of control	69.70 % of control	–
CSCC[C@H](N)C(=O)N[C@@H](Cc1c[nH]cn1)C(=O)O [MH] (H-Met-His-OH)	80.6 % of control	64.05 % of control	–
CC[C@H](C)[C@H](NC(=O)[C@@H](N)CCSC)C(=O)O [MI] (H-Met-Ile-OH)	82.1 % of control	79.80 % of control	–
CSCC[C@H](N)C(=O)N[C@@H](CCCCN)C(=O)O [MK] (H-Met-Lys-OH)	77.5 % of control	72.15 % of control	–
CSCC[C@H](N)C(=O)N[C@@H](CC(C)C)C(=O)O [ML] (H-Met-Leu-OH)	81.6 % of control	77.75 % of control	–
CSCC[C@H](NC(=O)[C@@H](N)CCSC)C(=O)O [MM] (H-Met-Met-OH)	77.0 % of control	76.05 % of control	–
CSCC[C@H](N)C(=O)N[C@@H](CC(N)=O)C(=O)O [MN] (H-Met-Asn-OH)	81.7 % of control	83.00 % of control	–
CSCC[C@H](N)C(=O)N[C@@H](CCC(N)=O)C(=O)O [MQ] (H-Met-Gln-OH)	81.0 % of control	79.25 % of control	–
CSCC[C@H](N)C(=O)N[C@@H](CCCNC(=N)N)C(=O)O [MR] (H-Met-Arg-OH)	74.7 % of control	54.30 % of control	–
CSCC[C@H](N)C(=O)N[C@@H](CO)C(=O)O [MS] (H-Met-Ser-OH)	74.9 % of control	74.05 % of control	–
CSCC[C@H](N)C(=O)N[C@H](C(=O)O)[C@@H](C)O [MT] (H-Met-Thr-OH)	73.4 % of control	82.25 % of control	–
CSCC[C@H](N)C(=O)N[C@H](C(=O)O)C(C)C [MV] (H-Met-Val-OH)	69.9 % of control	80.90 % of control	–
CSCC[C@H](N)C(=O)N[C@@H](Cc1c[nH]c2ccccc12)C(=O)O [MW, Met-Trp] (H-Met-Trp-OH)	44.2 % of control	20.75 % of control	76
CSCC[C@H](N)C(=O)N[C@@H](Cc1ccc(O)cc1)C(=O)O [MY, Met-Tyr] (H-Met-Tyr-OH)	57.8 % of control	28.25 % of control	151
C[C@H](NC(=O)[C@@H](N)CC(N)=O)C(=O)O [NA] (H-Asn-Ala-OH)	97.8 % of control	96.55 % of control	–
NC(=O)C[C@H](N)C(=O)N[C@@H](CS)C(=O)O [NC] (H-Asn-Cys-OH)	95.5 % of control	92.95 % of control	–
NC(=O)C[C@H](N)C(=O)N[C@@H](Cc1ccccc1)C(=O)O [NF] (H-Asn-Phe-OH)	95.9 % of control	100.0 % of control	–
